Laboratory results: the supplement of paper PMC11417369
± gives the standard deviation of the averaged measurements. The list shows a part of the results.

system: PfAP2-EXP AP2 domain (GST-tagged); test: gcPBM binding intensity (ln(normalized median fluorescence intensity)); higher = stronger DNA binding
How it was run: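 Plasmodium falciparum DNA-binding domains carrying a GST tag were expressed in E. coli and applied for 1 h, at about 25 μg on average, to an Agilent 4 × 180k array. The array held primer-extended double-stranded 36-bp intergenic genomic probes together with negative controls, and binding took place in 1× PBS with 1% milk, 0.2 mg/ml BSA, 0.5% salmon testes DNA and 0.03% Triton X-100. An Alexa488 anti-GST antibody detected bound protein, and the array was scanned at 488 nm. Binding intensity is taken as the highest Masliner-normalised natural-log median intensity across replicate spots of either probe orientation.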

Sequence | gcPBM binding intensity (ln)
GCACGCTGTATGAATGCACACATTCATAGAATTGCT [CACACA_site8852] | 8.38 ± 0.26
TTATATATATAGAAGTGTACAAAATTTCCTAGACCT [XGTACX_site3900] | 8.71 ± 0.28
TATAAATATTTATAAACACACAAATATATATATTTA [CACACA_site27] | 8.22 ± 0.28
TATCGACATTTCATTTGTACATATATACATATATTT [XGTACX_site3346] | 8.64 ± 0.42
GATGCTAAAATTTATACACACAAAAAAAAAAAATTC [CACACA_site3284] | 8.47 ± 0.46
AAAAAAAAAAAATATACACACACACCGACACATAAA [CACACA_site9270] | 8.71 ± 0.52
TATTTTATGTAAATTGGTACACATATGTCAGTAAAA [XGTACX_site7111] | 8.83 ± 0.58
TTTCATATTTTGTCCTGTTTTTTTTTTTTTTTTCTT [CACACA_negctrl_site993] | 8.62 ± 0.51
TTTTGAATATTTGGTCGTACGTAAAAATAGATAATT [XGTACX_site5755] | 8.82 ± 0.39
AAAATATAAAAAGTCACACATATATATATTTATTTA [CACACA_site4872] | 8.18 ± 0.47
TTGAATGAAAAAATTTGTACTCATATAAATAATTTA [XGTACX_site4628] | 8.18 ± 0.35
CAATAATTTTTTGTGGGTACAAATAATTTTTTAAAT [XGTACX_site2407] | 8.22 ± 0.35
AGGAGAAAAGATAAAGACTTCAAGAAAAAAAAATAA [TGCATGCA_negctrl_site258] | 8.62 ± 0.32
TAACAAAACCTTATATGTACACACATATACATCACA [XGTACX_site6772] | 8.51 ± 0.25
TTATCATTTTAAATCACACACATATATATATATATA [CACACA_site2849] | 10.1 ± 0.49
TTAAAAATGAACATATGTACATATATATATATATAT [XGTACX_site7923] | 10.2 ± 0.41
ACTACAAGGCAATACAGTACATATAAATGTCATAAT [XGTACX_site8468] | 8.8 ± 0.35
AAAAAGGTTATTGGTACACACATATGTATTTATATA [CACACA_site4464] | 8.54 ± 0.4
TACCTTTTATTAATGTGTACCTAAAATATAATACTT [XGTACX_site192] | 8.46 ± 0.52
TACATATTTATATACACACACACCCTAAAAATATAT [CACACA_site6861] | 8.94 ± 0.39
AAAAGAATTACTTTCACACATATATATCTGTAAATA [CACACA_site5798] | 8.24 ± 0.47
ATAATTTTTTTTTTTTTTTTTTGAAAGTAGCATATG [CACACA_negctrl_site732] | 8.01 ± 0.48

Sequence | gcPBM binding intensity (ln)
AATAATGAAGCTTATGCACACGTTCATTATTTATAT [CACACA_site5736] | 8.73 ± 0.38
TAATATCAATATAAAGTACACACTATAGTATGTATT [CACACA_site2280] | 8.31 ± 0.29
ATATCTTTGCAAAGATGTACTTGTAAAAATATATGA [XGTACX_site768] | 8.66 ± 0.4
TATATATATATATATATACACACGTATATATATACA [CACACA_site4155] | 9.97 ± 0.63
TATAATAAAACTTTTACACACTTTAAAAAAAAAAAA [CACACA_site6392] | 8.24 ± 0.35
GACCCACTTTTCTGCACACATAAAAAATATATAAAT [CACACA_site4483] | 8.92 ± 0.21
TAAAAGTAAAGACATGCATGCATTGGTATCTTTTAC [TGCATGCA_site665] | 9.73 ± 0.085
TTTATATTTAAATATATATGAGAAAACACAAAATAT [TGCATGCA_negctrl_site211] | 8.68 ± 0.48
GCTTCATTTTAAACTTGTACTTATTTTTTGGTAAAT [XGTACX_site8879] | 9 ± 0.3
TAGTTACTTCTTATATAAAATATGTATATAAAAATA [GTGCAC_negctrl_site190] | 8.1 ± 0.35
ACATATTAATTATAAAGTACATATATATATATATAT [XGTACX_site4540] | 10.3 ± 0.18
TCTCTCATTTATTTTTGTACTTAATCCAGCACGTTT [XGTACX_site1369] | 8.96 ± 0.54
TTGTTTGTTGTAACGTGTACAGATAAAAATAAAGGG [XGTACX_site375] | 9.29 ± 0.55
TTCATATTATAGTGCACACAAAAATATATATATGGT [CACACA_site2855] | 9.22 ± 0.28
TAAATTAATACCTATGCACACATTTTTTTTTTTAAA [CACACA_site1238] | 8.38 ± 0.32
AAATTATCTTAATAGGATGTTCAAGGAGAAAGATGA [CACACA_negctrl_site1032] | 8.67 ± 0.52
TTTATTATAATATGTTGTACAAGACGTTTCAGTATA [XGTACX_site4486] | 8.77 ± 0.28
CTTAAATTTTTAAATACACACATACACCCATACACA [CACACA_site4461] | 8.93 ± 0.43
TTTTTTTTAAATATCACACACATATAATATATTCTA [CACACA_site3668] | 8.2 ± 0.45
AAACCCTATTCAATGCAATAATTTTATAATTTTTTT [TGCATGCA_negctrl_site434] | 8.28 ± 0.45
AACATGTATATATTATGTACATATGTTAAAATGATA [XGTACX_site6217] | 8.77 ± 0.41
ATAGTTTTATATAAATGTACAAATGATTTCAAATAG [XGTACX_site8236] | 8.54 ± 0.28

Sequence | gcPBM binding intensity (ln)
TAGCGGCGGTATCATGCACACGTATATATTGTAACA [CACACA_site8453] | 8.71 ± 0.52
GAGTTAATTTTTTCGTGTACTTGAAAATATTTTTTT [XGTACX_site6392] | 8.8 ± 0.25
TTTTCTTACACGAATTTTAAATTCAATATTAAACAT [CACACA_negctrl_site286] | 8.62 ± 0.33
TTACCTTTTTCTAATGGTACACATAAAATATCATTT [XGTACX_site6825] | 8.36 ± 0.28
GTGGAAATATAACACATTTTTTTTAATAATTATATT [TGCATGCA_negctrl_site522] | 8.08 ± 0.21
TTAGCAACTATTACTACACACATTTGTATATAACTT [CACACA_site6850] | 8.62 ± 0.33
CATATACTCGGACACACACACACACCGACAAAAAAA [CACACA_site4433] | 8.64 ± 0.4
TATCATAAAATATGTAGTACGTATATATATAAAAAT [XGTACX_site5455] | 8.85 ± 0.4
TTTTGTGGAGGATGGTGTACGGTATTGTATTATTAC [XGTACX_site1942] | 8.79 ± 0.49
TTTATAGTTTTTAATAGTACACATATTTTTAAGTAT [XGTACX_site5498] | 8.53 ± 0.16
AAAAAAAAAGTATATATATATTTAAGGAATTCTCTC [GTGCAC_negctrl_site454] | 8.34 ± 0.38
TAAACAGACATACATACACACATACATACAGACATA [CACACA_site6997] | 8.71 ± 0.35
ATATATATATATTGCACACATATAAATATATATATT [CACACA_site807] | 9.89 ± 0.13
CAACCTTTTTTGTTGGTGCATAATTTTTTTTTCTTT | 8.795 ± 0.078
AATATATAGCTAAAAACACACAAATATATACTCATA [CACACA_site5904] | 8.6 ± 0.4
TTTATAAAATTTATTGCACACAATTATTTTATAATT [CACACA_site2489] | 8.41 ± 0.22
ATACATTTTTTTTTCACACATATATATATATTTAAT [CACACA_site5995] | 8.92 ± 0.45
CTCACGTAGCTTGATGCATGCAAACTTGAGTAAAAG [TGCATGCA_site409] | 9.53 ± 0.31
CATTTTTAAAAAAATTGTACAAAACATATATGTGTA [XGTACX_site3396] | 8.73 ± 0.42
TATTAAAAGTAAAAAACACACATGGATATATACATA [CACACA_site3959] | 8.72 ± 0.42
TTCCTTTTGAACTCTCGTACGCGTAGGTGTTATTAT [XGTACX_site6264] | 8.96 ± 0.4
TTACTATATAATATGTGTACACAACATATAATATAT [XGTACX_site1383] | 8.56 ± 0.11

Sequence | gcPBM binding intensity (ln)
AAAAAAAAAAAAAAAAAAAAAAAAATATATATATAT [CACACA_negctrl_site436] | 10 ± 0.31
GTTGTGTAATTCGTAACACACATAAAATATAAATAA [CACACA_site7799] | 8.62 ± 0.49
TTTTTTTTTTGATGTTGTACTTATATACTATATAAT [XGTACX_site2778] | 8.63 ± 0.33
TAAATAAATAAAAAAACACACATATAAATATAAATA [CACACA_site7815] | 8.56 ± 0.4
TGTTTCCTATTTTGTATGCACTTTTTGTCATAATTA [GTGCAC_site9921] | 9.01 ± 0.042
TATACGGACTCTAAGTGTACTTAAAATAATTCAAAC [XGTACX_site3606] | 8.46 ± 0.32
TATGTGTGACAAAATTGTACGGTCTCTTTATTTTGT [XGTACX_site2679] | 8.78 ± 0.62
TATTATATAATAAAAATTATTATTATTTGTATAAAT [CACACA_negctrl_site195] | 7.89 ± 0.51
ATTTTTATACCTAAGTGTACATGATGTTTTCTTTTT [XGTACX_site973] | 8.76 ± 0.47
TATATTGCCCTTCACACACACACATATATATATATA [CACACA_site2492] | 10.2 ± 0.28
TAAAAATGTTGACACACACACATAAATATATTTTAT [CACACA_site7227] | 8.53 ± 0.37
ATATTATTTTAAAAAAGTACATTTTTAAGAATTCTT [XGTACX_site6630] | 8.51 ± 0.42
AACATATAAATAAACTGTACATATATATATATATAT [XGTACX_site1056] | 10.1 ± 0.39
AATATTACGTGTTTGGTATTTTTCGATGTTGGCAGG [XGTACX_negctrl_site59] | 8.79 ± 0.63
TATCATTATGTAGAAACACACATAAGCTTCGGTTCA [CACACA_site2766] | 8.39 ± 0.67
GGGGAAAAAAAAAAAGGAAAAAGAAAAAAAAAAAAA [GTGCAC_negctrl_site489] | 8.38 ± 0.39
ATAAAATTTATATAAGCACACAAATATATATTTATA [CACACA_site9083] | 8.43 ± 0.53
TTATGGTTATACATATGTACATATATATATATATAT [XGTACX_site1494] | 10.3 ± 0.2
AATTGCATAATATATTCACACATTTTTAAGTGATAC [CACACA_site5679] | 8.38 ± 0.35
GTAAAGGCTATATATGTGCACATTTTTTTTTTTTTT [GTGCAC_site9925] | 8.72 ± 0.4
GTATATATATATATATGTACATATATGTAGATATAT [XGTACX_site5431] | 8.62 ± 0.35
ATATGTACGCAAGGTGCACACTGGTGCATTAAAAAA [CACACA_site1801] | 9.66 ± 0.82
